The values that follow come from patent US20030099969A1 (published 2003).

The target in this assay is T1, 35S-labeled Ipaf (human, UniProt Q9NPP4 1-1024, limits assumed, 35S-labeled).
T1 construct: Radiolabeled Ipaf used in the GST pull-down
In words: GST pull-down on glutathione Sepharose beads, SDS-PAGE and autoradiography.

B1: GST (other)
chain: not shown
notes: Control protein in the pull-downs; also called GST control
On to B1, for which the binding result is “no binding”.
